Whole data set: some 33,000 sequences, median “E-score (-0.5 to 0.5)” near -0.011, cut for the highest 2% near 0.28. This is one part of the list.
biological target: T1, Gcr1 (UniProt P07261); assay: PBM E-score (8-mer binding enrichment) (E-score (-0.5 to 0.5)); higher = stronger / more preferred TF binding; most listed sequences are background and not binding sites; conditions: protein concentration: 100 nM; construct: GST-full length
T1 sequence: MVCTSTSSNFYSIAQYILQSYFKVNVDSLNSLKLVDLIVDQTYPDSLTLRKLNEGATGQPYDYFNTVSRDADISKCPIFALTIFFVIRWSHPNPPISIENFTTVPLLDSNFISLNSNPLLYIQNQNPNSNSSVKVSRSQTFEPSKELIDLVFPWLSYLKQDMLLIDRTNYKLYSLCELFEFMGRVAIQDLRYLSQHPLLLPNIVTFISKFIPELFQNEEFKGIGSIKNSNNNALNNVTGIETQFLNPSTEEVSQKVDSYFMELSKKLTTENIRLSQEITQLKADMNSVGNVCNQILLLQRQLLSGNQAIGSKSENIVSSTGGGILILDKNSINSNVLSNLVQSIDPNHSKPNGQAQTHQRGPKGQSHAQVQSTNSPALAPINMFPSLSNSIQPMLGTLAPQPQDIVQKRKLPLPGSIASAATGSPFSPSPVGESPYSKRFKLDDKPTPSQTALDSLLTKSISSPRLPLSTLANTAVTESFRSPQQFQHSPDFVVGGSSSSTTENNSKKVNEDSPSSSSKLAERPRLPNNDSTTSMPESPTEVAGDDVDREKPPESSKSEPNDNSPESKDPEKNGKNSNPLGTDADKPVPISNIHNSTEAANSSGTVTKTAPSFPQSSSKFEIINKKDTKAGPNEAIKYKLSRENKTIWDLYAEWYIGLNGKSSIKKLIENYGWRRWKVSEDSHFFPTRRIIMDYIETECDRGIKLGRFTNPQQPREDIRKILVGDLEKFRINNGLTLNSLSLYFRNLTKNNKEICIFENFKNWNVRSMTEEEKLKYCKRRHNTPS
Protocol: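 Universal 'all 10-mer' protein binding microarrays (Agilent AMADID 015681) probed with GST-tagged S. cerevisiae TFs (full-length or DBD) made by in vitro transcription/translation (PURExpress), about 100-200 nM. Bound TF was detected with fluorescent anti-GST. Each ungapped 8-mer (which stands for itself and its reverse complement) is scored by the PBM enrichment score (E-score), a modified Wilcoxon-Mann-Whitney statistic from -0.5 to +0.5, computed with the Universal PBM Analysis Suite. Scale: above 0.35 generally sequence-specific binding.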

Compared with ACTTTTAC, ATGCAAAC is lower in “PBM E-score” value: 0.172 for the first, 0.115 for the second.

First: ATTGACGA
Second: TTATGGAA
The “PBM E-score” value of the first is lower: -0.0985 for the first, 0.163 for the second.

Compared with GTCAGAGA, TACGCTGA is higher in “PBM E-score” value: -0.187 for the first, 0.0439 for the second.

First: ACTTAGAA
Second: GAGTCCCC
The “PBM E-score” value of the first is higher: 0.00292 for the first, -0.0421 for the second.

Going from ATCCAATC to ACAGGAGT, the “PBM E-score” value falls from 0.13 to 0.0951.

Compared with AGCACGGC, CGGGCTGA is lower in “PBM E-score” value: -0.0167 for the first, -0.241 for the second.

Compared with AGACTTAA, AATCTTAA is higher in “PBM E-score” value: -0.0766 for the first, 0.0368 for the second.

Going from CGGCGAAA to GCCATAGA, the “PBM E-score” value rises from -0.141 to -0.134.

Going from AATGGTGA to AGAAATAA, the “PBM E-score” value rises from -0.0677 to 0.132.

First: CCCACCGG
Second: GTGGATGA
The “PBM E-score” value of the first is higher: -0.0366 for the first, -0.123 for the second.

Compared with ACATGCAT, AGAAGTCG is higher in “PBM E-score” value: -0.0948 for the first, 0.271 for the second.

Going from CATGTCTA to GTGGGCTA, the “PBM E-score” value rises from -0.207 to -0.0188.

First: ATCCGGAG
Second: CGCCTGTA
The “PBM E-score” value of the first is higher: 0.129 for the first, 0.0857 for the second.

First: AATAAATG
Second: AAACAATG
The “PBM E-score” value of the first is lower: -0.0631 for the first, 0.0177 for the second.

Compared with GCGCAGAA, AAGTATCT is higher in “PBM E-score” value: 0.0232 for the first, 0.113 for the second.

First: GGCTGCAC
Second: GGCATTAA
The “PBM E-score” value of the first is lower: -0.115 for the first, 0.0673 for the second.

First: GATGCTTA
Second: AGTCAACC
The “PBM E-score” value of the first is higher: 0.151 for the first, -0.181 for the second.

Going from GGAGGTGA to TCCATCAA, the “PBM E-score” value falls from 0.093 to -0.0209.

First: AAACCTTG
Second: ATGTTTAC
The “PBM E-score” value of the first is lower: -0.0795 for the first, 0.044 for the second.

Going from CACGTCAG to ATAACTAA, the “PBM E-score” value rises from -0.0814 to -0.00835.

Compared with CGTAGGAG, ACTGGTCC is lower in “PBM E-score” value: -0.176 for the first, -0.314 for the second.

Going from GGGATATA to AGCCGGGC, the “PBM E-score” value rises from -0.108 to -0.0478.

Compared with GTTGGGAA, GAACAGAC is lower in “PBM E-score” value: 0.0566 for the first, -0.104 for the second.

Going from AGCAGGAT to ACCCCCGC, the “PBM E-score” value falls from 0.0541 to -0.104.

Going from ACATTCGA to ATAATAAT, the “PBM E-score” value rises from -0.114 to 0.0664.

Going from CGCTCAAC to ATCATAAG, the “PBM E-score” value rises from -0.0355 to 0.0563.

Going from TAGGCCAA to AGCCCCGA, the “PBM E-score” value rises from -0.255 to -0.108.

Compared with GAGCAGGC, GGTATAGA is higher in “PBM E-score” value: -0.198 for the first, 0.112 for the second.

First: CGGTGTAA
Second: AAAGTATT
The “PBM E-score” value of the first is higher: 0.00963 for the first, -0.00522 for the second.

First: CACGCGCC
Second: ATTCGATC
The “PBM E-score” value of the first is higher: 0.119 for the first, -0.145 for the second.

Going from GACAGGCA to ACTGAAGT, the “PBM E-score” value falls from 0.108 to 0.0283.

Going from GTGGGTAA to ACCATATA, the “PBM E-score” value rises from -0.0908 to 0.126.

Compared with CGACTGCG, GGGGTGCA is higher in “PBM E-score” value: -0.0439 for the first, 0.0288 for the second.

First: CGTGGCCC
Second: AATCTCGA
The “PBM E-score” value of the first is lower: -0.182 for the first, 0.0433 for the second.

Compared with CGGATAAG, GCAATCCA is higher in “PBM E-score” value: -0.0314 for the first, 0.0482 for the second.

First: GAAACTCA
Second: AAGAGCGA
The “PBM E-score” value of the first is higher: 0.101 for the first, -0.103 for the second.

First: ACCAAATG
Second: ACCCTAGT
The “PBM E-score” value of the first is higher: 0.225 for the first, -0.0547 for the second.

First: CGAAACAA
Second: GTCATGAC
The “PBM E-score” value of the first is higher: -0.0129 for the first, -0.172 for the second.

First: GCAACAGC
Second: CGGGAGTA
The “PBM E-score” value of the first is lower: -0.0432 for the first, -0.00887 for the second.

Compared with AATTTGAT, CGTCGCTC is lower in “PBM E-score” value: -0.0357 for the first, -0.148 for the second.

Going from ATTTCGAC to GGGCCCAC, the “PBM E-score” value rises from -0.0391 to 0.193.

Going from ACCGCTCA to CCCCAATC, the “PBM E-score” value rises from -0.127 to -0.035.

Going from TATCGGCA to ACAACCGC, the “PBM E-score” value falls from 0.091 to 0.0429.

Compared with TTCAGCAA, ACTCGGAA is higher in “PBM E-score” value: -0.0395 for the first, 0.166 for the second.

First: ATGTGATG
Second: CCCCACAC
The “PBM E-score” value of the first is lower: -0.0994 for the first, 0.108 for the second.

Compared with CCCCTTTC, CGCGGCGC is higher in “PBM E-score” value: 0.125 for the first, 0.217 for the second.

Compared with ACATAGAT, CAAGAGAC is lower in “PBM E-score” value: -0.117 for the first, -0.203 for the second.

First: ATCGCTGA
Second: GGAGAAAC
The “PBM E-score” value of the first is higher: -0.094 for the first, -0.217 for the second.

Compared with TCACCGGA, TCGGCCGA is lower in “PBM E-score” value: 0.175 for the first, -0.121 for the second.

Going from TAGCTACA to TAGCGAAA, the “PBM E-score” value falls from -0.0125 to -0.143.

Compared with ACAGCTGT, ATCAAAGC is higher in “PBM E-score” value: -0.0809 for the first, -0.00302 for the second.

Compared with GTAACTCA, GAGACGCC is higher in “PBM E-score” value: -0.0907 for the first, 0.234 for the second.

First: AATGGTAT
Second: AGACACGC
The “PBM E-score” value of the first is higher: 0.0672 for the first, -0.0398 for the second.

Going from CCTCCTCA to AACTGAGT, the “PBM E-score” value falls from -0.0421 to -0.0972.

Going from AGCCCAGG to GACTTGTA, the “PBM E-score” value rises from -0.148 to 0.14.

First: TCCAGACA
Second: AAAAAGGC
The “PBM E-score” value of the first is higher: 0.149 for the first, 0.00938 for the second.

Compared with ACCCATAC, ACTGCCCT is lower in “PBM E-score” value: 0.0568 for the first, -0.195 for the second.

Compared with AAAGTGCA, AAGGAGGG is lower in “PBM E-score” value: -0.0249 for the first, -0.0943 for the second.

First: CTACCTCC
Second: ACACTGCG
The “PBM E-score” value of the first is lower: -0.0336 for the first, 0.0668 for the second.

First: CAAACGGA
Second: ACAAGCTA
The “PBM E-score” value of the first is lower: -0.049 for the first, -0.0171 for the second.

First: ACGAGCCG
Second: CGACGGCC
The “PBM E-score” value of the first is higher: -0.0911 for the first, -0.389 for the second.

Compared with TCTTATCA, AATGTTTA is lower in “PBM E-score” value: 0.232 for the first, 0.0924 for the second.

Going from CGATTTAC to ATTACCCA, the “PBM E-score” value falls from -0.039 to -0.115.

Compared with ACTAGGTC, GATCGCCC is higher in “PBM E-score” value: -0.126 for the first, -0.106 for the second.

Compared with AAAATTTC, ACGTCAAT is lower in “PBM E-score” value: 0.0607 for the first, -0.0602 for the second.

First: CACCGCGA
Second: ATGCAGCA
The “PBM E-score” value of the first is lower: -0.0743 for the first, 0.0519 for the second.

Going from CAACGGTG to CAACTATA, the “PBM E-score” value rises from -0.0872 to 0.103.

Compared with ACCGTCCA, AGGAATTC is higher in “PBM E-score” value: 0.0563 for the first, 0.261 for the second.

First: AAAACGCT
Second: TGAATTAA
The “PBM E-score” value of the first is lower: -0.0686 for the first, 0.0255 for the second.

Compared with AGATTGGG, CCTTCACC is lower in “PBM E-score” value: 0.131 for the first, -0.0651 for the second.

Going from ACGGGGTG to CTTCTTAA, the “PBM E-score” value rises from -0.00575 to 0.118.

Compared with AAATGCTC, AGGGCGCG is higher in “PBM E-score” value: 0.181 for the first, 0.194 for the second.

Going from AGCAATTC to GATGAAAA, the “PBM E-score” value rises from -0.153 to 0.00281.

Compared with CTTCAACA, CCTCAGTC is lower in “PBM E-score” value: 0.0874 for the first, -0.0922 for the second.

Going from AAAAAAAG to AAAACACA, the “PBM E-score” value falls from 0.165 to 0.0416.

Going from AGGAGCCC to AAGTCGAC, the “PBM E-score” value falls from 0.294 to -0.16.

Going from AACGGTCG to CCTCGGCG, the “PBM E-score” value rises from -0.161 to 0.0644.

Going from TGGGCTAA to ATTCCATA, the “PBM E-score” value rises from -0.175 to 0.0655.

First: CCACCATC
Second: CGCCCGAA
The “PBM E-score” value of the first is lower: 0.0892 for the first, 0.166 for the second.

Going from AAACTCAG to GCCCCGTA, the “PBM E-score” value rises from -0.0351 to -0.0324.

Going from GGCCACTA to CAACCCAA, the “PBM E-score” value falls from 0.248 to 0.00025.

Going from TGCCCACA to GGTTGGAA, the “PBM E-score” value rises from -0.0941 to 0.183.

First: ACCAGGCT
Second: AGTCGCAG
The “PBM E-score” value of the first is lower: -0.00947 for the first, 0.156 for the second.

Going from TCCTACAA to AAGCACGC, the “PBM E-score” value rises from 0.0583 to 0.0992.

First: GACCTATC
Second: CATGAGCG
The “PBM E-score” value of the first is higher: 0.0761 for the first, -0.0118 for the second.

First: GCCCTAGA
Second: AATAAACT
The “PBM E-score” value of the first is lower: -0.064 for the first, 0.105 for the second.

— the supplement of paper PMC3334620
